Test results reported in PubChem BioAssay AID938 (National Center for Advancing Translational Sciences (NCATS), 2007).
The campaign covered roughly 73,000 compounds. About 1,800 (2.5%) were called active. About 13% were inconclusive and are not listed. Calls follow the shape of the dose curve; as a rule, active = well fitted activation curve with a large enough effect; inconclusive = small, poorly fitted or top-dose-only effect; inactive = no such curve, though single readings can be large or run the other way. The list shows a part of the results, in another mix than the full data.

Assay: qHTS Assay for Agonists of the Thyroid Stimulating Hormone Receptor: Activators of Intracellular cAMP Concentrations in Parental HEK 293; also: nearly all actives have a fitted effect of over 55% in size; as to activation: % of control where 0% means no effect
Conditions: parental HEK293 CNG cAMP sensor, membrane potential fluorescence; series mostly up to 57.1 µM; activation: at the top concentration
Outline: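 Counterscreen for endogenous-receptor signalling: CNG-channel HEK 293 cells report cAMP rise by membrane depolarization. After 60 min dye equilibration with 100 uM RO 20-1724, compounds incubated 30 min before bottom-read fluorescence at 590 nm.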
Potency is read from the fitted curve at half-maximal effect.

| SMILES | activation | Potency |
| --- | --- | --- |
| O=c1[nH]c2cc([N+](=O)[O-])c([N+](=O)[O-])cc2[nH]c1=O | inactive: 2.52% |  |
| CC(=O)/C(C)=N\O | inactive: -3.42% |  |
| O=C(CCc1ccc(O)cc1)c1c(O)cc(O)cc1O |  | inactive |
| COC(=O)Nc1nc2ccc(C(=O)c3cccs3)cc2[nH]1 |  | inactive |
| C[C@](O)(C(=O)Nc1ccc(S(=O)(=O)c2ccccc2)cc1)C(F)(F)F | inactive: -31.6% |  |
| COc1ccc(N2CCN(c3oc(COc4ccccc4)nc3C#N)CC2)cc1 |  | active: 0.794 µM |
| Cc1c(N(C)C)c(=O)n(-c2ccccc2)n1C |  | inactive |
| CCCc1c(-c2ccc(O)cc2)nn(-c2ccc(O)cc2)c1-c1ccc(O)cc1 | inactive: 9.19% |  |
| Cc1ccc2cc(CN(C(=O)c3ccncc3)C(C)C)c(=O)[nH]c2c1 | inactive: -0.544% |  |
| O=C(NCc1ccccc1)[C@H]1C[C@@H]1[C@H](NP(=O)(c1ccccc1)c1ccccc1)c1ccccc1 | inactive: 21.5% |  |
| CCCCCCCCN | inactive: -26.1% |  |
| NC/C=C\C(=O)O |  | inactive |
| Cn1cc(-c2nc3cnc(N4CCNCC4)nc3n(CCc3ccccc3)c2=O)c2ccccc21 | inactive: -38.7% |  |
| COc1ccccc1CNc1ncnc2ccc(-c3ccoc3)cc12 |  | active: 20 µM |
| Clc1ccc(Cn2nnc(-c3ccc(CN4CCOCC4)cc3)n2)cc1 |  | active: 31.6 µM |
| NCCc1cnc[nH]1 | inactive: -4.8% |  |
| CC(C)C(=O)Nc1cccc(C(=O)NCc2ccc(S(N)(=O)=O)cc2)c1 | inactive: -1.01% |  |
| O=C(NCc1cccs1)c1cnc2sccn2c1=O | inactive: 16.7% |  |
| CCC(=O)NC(C)C(c1cccs1)N1CCOCC1 (configuration not stated) | inactive: -38.9% |  |
| CCC(C)c1ccc(NC(=O)CC(C)=O)cc1 (configuration not stated) | inactive: -53.9% |  |
| Cc1nn(-c2ccc(Cl)cc2)c2sc(C(=O)N3CCN(c4ccccn4)CC3)cc12 | inactive: 4.48% |  |
| NS(=O)(=O)c1cc2c(cc1Cl)NC=NS2(=O)=O | inactive: -8.59% |  |
| COc1ccc(C(=O)N2CCC3(CCCN(c4ccncc4)C3)CC2)cc1 |  | active: 12.6 µM |
| COc1ccc2cc3cc(C(=O)Nc4ccccc4N4CCN(C)CC4)oc3nc2c1 | inactive: -68.4% |  |
| CCOc1ccc(NC(=O)c2nnn(CC(=O)Nc3ccccc3OCC)c2N)cc1 | inactive: -5.12% |  |
| CC(C)[N+](C)(CCOC(=O)C1c2ccccc2Oc2ccccc21)C(C)C | inactive: 5.53% [at 25.6 µM] |  |

| SMILES | activation | Potency |
| --- | --- | --- |
| BrC/C=C/CBr | inactive: 24.5% |  |
| CCCCN(CC)S(=O)(=O)c1cccc2cccnc12 |  | active: 20 µM |
| CC1=NN(c2ccccc2)C(=O)C1 |  | inactive |
| O=C(N[C@H](CO)[C@H](O)c1ccc([N+](=O)[O-])cc1)C(Cl)Cl | inactive: 12.7% |  |
| CCN(CC)CCOC(=O)c1cc(Cl)c(N)cc1OC | inactive: 1.01% |  |
| Cc1cc(NC(=O)CS(=O)(=O)c2cn(Cc3ccccc3Cl)c3ccccc23)no1 |  | active: 25.1 µM |
| Oc1cccc(Nc2ccccc2)c1 | inactive: -17.2% |  |
| COc1ccccc1-c1nc(NCc2cccnc2)c2ccccc2n1 | inactive: -54.4% |  |
| COCCn1c(C(=O)N2CCCC2)cc2c1C[C@H]1CN(C(=O)c3ccccc3)[C@@](Cc3ccc(F)cc3)(C(=O)OC)[C@@H]21 |  | active: 12.6 µM |
| CO[C@H]1/C=C/O[C@@]2(C)Oc3c(C)c(O)c4c(O)c(c5c(c4c3C2=O)NC2(CCN(CC(C)C)CC2)N=5)=NC(=O)/C(C)=C\C=C\[C@H](C)[C@H](O)[C@@H](C)[C@@H](O)[C@@H](C)[C@H](OC(C)=O)[C@@H]1C | inactive: -86.6% |  |
| C[C@@H](C(=O)NCc1ccccn1)[C@@H]1C[C@@]1(C)[C@@H](NC(=O)OCc1ccccc1)c1ccccc1 | inactive: 23% |  |
| Oc1ccc2cc(SSc3ccc4cc(O)ccc4c3)ccc2c1 | inactive: 6.27% |  |
| CN/C(=C\[N+](=O)[O-])NCCSCc1ccc(CN(C)C)o1 |  | inactive |
| CCOC(=O)N1CCN(C(=O)c2ccc3c(=O)n(-c4ccc(OC)cc4OC)c(=S)[nH]c3c2)CC1 | inactive: -1.15% |  |
| CC(=O)[C@H](CC(C)C)NC(=O)[C@@H](CC(C)C)NC(=O)[C@H](CC(C)C)NC(=O)OCc1ccccc1 |  | active: 25.1 µM |
| CCCCCCO | inactive: -18.3% |  |
| O=C1[C@H]2[C@H]3[C@H](O)[C@H](O)C/C(=N/OCc4ccccc4)[C@H]3CC[C@@H]2C(=O)N1C[C@@H]1CCCO1 | inactive: -7.4% [at 11.4 µM] |  |
| Cc1cccc(N2CCN(C(=O)c3ccc(CS(=O)(=O)c4ccccc4C)o3)CC2C)c1 (configuration not stated) |  | active: 25.1 µM |
| Cn1c(=O)c(C(=O)CN2CCOCC2)c(N)n(Cc2ccccc2)c1=O | inactive: 12.3% |  |
| ON=C1CCCCC1 | inactive: -28.8% |  |
| O=C(Nc1ccc(F)cc1)c1ccc(S(=O)(=O)NCC2CCCO2)cc1 (configuration not stated) |  | active: 3.16 µM |
| Cc1cccn2c(=O)c3cc(C(=O)NC4CCCC4)c(=N)n(C4CCCC4)c3nc12 | inactive: -55.4% |  |
| O=C(Cl)c1cccc([N+](=O)[O-])c1 | inactive: -16.2% |  |
| COc1cccc(-c2nnc(SCc3ccc(C#N)cc3)n2Cc2ccco2)c1 |  | active: 6.31 µM |
| COc1ccc2nc3c(c(-c4ccccc4)c2c1)CCC3 |  | active: 25.1 µM |
| CCCc1cc(=O)[nH]c(SCC(=O)NC(=O)OCC)n1 | inactive: 3.38% |  |

| SMILES | activation | Potency |
| --- | --- | --- |
| O=C(c1cc(C(F)(F)F)cc(C(F)(F)F)c1)N1CCC2(CC1)CCN(c1ccncc1)CC2 |  | active: 3.16 µM |
| CCNc1cc(O)ccc1C | inactive: -32.7% |  |
| CCCCCCCC/C=C\CCCCCCCC(=O)N(CCO)CCO | inactive: -15.6% |  |
| CCOC(=O)CCCNC(=O)CN1C(=O)NC2(CCCCCC2)C1=O | inactive: 1.68% |  |
| O=C(c1cc2cc(Cl)ccc2oc1=O)N1CCOCC1 | inactive: -53.2% |  |
| O=C(O)c1cc(=O)c2c(Cl)cc(Cl)cc2[nH]1 | inactive: 11.3% |  |
| O=C(Nc1nc2c(s1)CCCC2)c1cc2n(n1)C(C(F)(F)F)CC(C1CC1)N2 (configuration not stated) | inactive: -20% |  |
| Cn1cc(C(=O)c2ccc(Cl)cc2)cc1-c1nc2ccccc2n1C |  | active: 31.6 µM |
| CCC(Oc1ccccc1)C(=O)Nc1ccccc1OC (configuration not stated) |  | active: 31.6 µM |
| Cc1ccc(S(=O)(=O)Nc2ccc(Br)cc2/C=N/n2cnnc2)cc1 | inactive: -33.3% |  |
| CSc1nc(N2CCOCC2)c2c(c1C#N)CCCCC2 |  | active: 25.1 µM |
| O=c1c(-c2cccs2)nc2cnc(N3CCNCC3)nc2n1CCc1ccccc1 | inactive: -35.7% |  |
| COc1ccc(CCNc2oc(-c3ccco3)nc2C#N)cc1 | inactive: 4.46% |  |
| CC(=O)c1c(NC(=O)C(C)C)nc(C)nc1-c1ccccc1 | inactive: 13.1% [at 11.4 µM] |  |
| CC1(C)S[C@@H]2[C@H](NC(=O)[C@H](N)c3ccccc3)C(=O)N2[C@H]1C(=O)O | inactive: -41.7% |  |
| O=C1C=C(N2CCN(c3ccccn3)CC2)C(=O)c2c(O)ccc(O)c21 | inactive: -37.1% [at 11.4 µM] |  |
| Oc1ccc(-c2nc(-c3ccc(F)cc3)c(-c3ccncc3)[nH]2)cc1 | inactive: -39.8% |  |
| CCN(CCNC(=O)C1CCN(Cc2nc(-c3ccc(Cl)cc3)oc2C)CC1)c1ccccc1 | inactive: -50.2% |  |
| NC(=O)CNC(=O)C1CCCc2c1[nH]c1ccc(Cl)cc21 (configuration not stated) | inactive: -48.1% |  |
| COc1ccc2cc([C@H](C)C(=O)O)ccc2c1 | inactive: 23.2% [at 25.6 µM] |  |
| O=C(COc1ccc2ccccc2c1CN1CCOCC1)N1CCc2ccccc21 | inactive: -36% |  |
| Cc1cc(C)c(C)c(S(=O)(=O)NCc2cccnc2)c1C | inactive: 10.4% |  |
| CC(C)=CCC/C(C)=C/CO/N=C1/C[C@@H](O)[C@@H](O)[C@@H]2[C@@H]3C(=O)N(C(C)(C)C)C(=O)[C@H]3CC[C@@H]12 | inactive: -2.67% [at 11.4 µM] |  |
| Cc1c(-c2ccc(Cl)cc2)noc1C1CCN(CCc2ccccc2)CC1 | inactive: -34.7% |  |
| CCCn1c(=O)c2[nH]c(C3CCCC3)nc2n(CCC)c1=O | inactive: 2.49% |  |
| O=C(CCNNC(=O)c1ccncc1)NCc1ccccc1 | inactive: -2.05% [at 25.6 µM] |  |

| SMILES | activation | Potency |
| --- | --- | --- |
| COc1ccc(OCC(O)Cn2c(=N)n(Cc3ccccc3)c3ccccc32)cc1 (configuration not stated) | inactive: -38.5% |  |
| CCCCC[C@H](O)/C=C/[C@H]1[C@H](O)CC(=O)[C@@H]1C/C=C\CCCC(=O)O |  | active: 0.01 µM |
| COC(=O)c1ccc(N2CCN(C)CC2)c(NC(=O)c2cc3ccccc3o2)c1 | inactive: -39.5% |  |
| CCCC(C)CO (configuration not stated) | inactive: -9.56% |  |
| C=CCn1c(SC/C=C/c2ccccc2)nnc1-c1sc(N)nc1C | inactive: 12.7% |  |
| CCN(CCNC(=O)C1CCN(Cc2nc(-c3cccc(Cl)c3)oc2C)CC1)c1ccccc1 | inactive: -63% |  |
| CC1CN(C(=O)c2cc(F)c(F)cc2Cl)CC(C)O1 (configuration not stated) | inactive: -33.9% |  |
| O=C(Nc1cccc(C(=O)Nc2ccc(S(=O)(=O)O)c3cc(S(=O)(=O)O)cc(S(=O)(=O)O)c23)c1)Nc1cccc(C(=O)Nc2ccc(S(=O)(=O)O)c3cc(S(=O)(=O)O)cc(S(=O)(=O)O)c23)c1 | inactive: 1.29% |  |
| c1ccc(-c2ccc(N3CCCC4(CCNCC4)C3)cc2)cc1 | inactive: -53.5% |  |
| CC(C)C(c1nnnn1Cc1ccc(F)cc1)N1CCN(C2CCCCC2)CC1 (configuration not stated) | inactive: -60.1% |  |
| C=CCCCCCC | inactive: 2.49% |  |
| CCc1nc(N2CCCC(C)C2)c2oc3ccccc3c2n1 (configuration not stated) |  | active: 15.8 µM |
| N[C@@H](CS(=O)O)C(=O)O | inactive: 10.8% |  |
| CC(C)CO/N=C1/C[C@@H](O)[C@@H](O)[C@@H]2[C@@H]3C(=O)N(Cc4ccccc4)C(=O)[C@H]3CC[C@@H]12 | inactive: -3.83% [at 11.4 µM] |  |
| Cc1ccc(S(=O)(=O)NC2CCCCC2)cc1 | inactive: 50% |  |
| CN(C)c1cc(N)c2ccccc2n1 (tested in a mixture with another compound) | inactive: -92.1% |  |
| CCOC(=O)Cc1csc(NC(=O)CSc2nc(C)cc(=O)[nH]2)n1 | inactive: -43.7% |  |
| CCOC(=O)CN1CC23C=CC(O2)C(C(=O)NCc2ccc(C)cc2)C3C1=O (configuration not stated) | inactive: 6.02% |  |
| Cc1cc(NC(=O)Nc2ccc3c(ccn3C)c2)sn1 | inactive: -12.1% |  |
| BrC(Br)C(Br)Br | inactive: -10.9% |  |
| COC(=O)c1ccccc1 | inactive: 3.39% |  |
| CC(NC(=O)c1ccco1)C(=O)Nc1nc(-c2ccccn2)cs1 (configuration not stated) | inactive: 0.851% |  |
| COC(=O)[C@H]1C[C@@H]1[C@H](NC(=O)OCc1ccccc1)c1ccccc1 | inactive: 20.8% |  |
| C[C@@H](C(=O)NCCc1c[nH]c2ccccc12)[C@@H]1C[C@@]1(C)[C@@H](NC(=O)OCc1ccccc1)c1ccccc1 | inactive: 14.5% |  |
